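Cultured in 96-well plates, cells were exposed to test compound for 48 hours across five concentrations. At the GI50, growth is halved.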 Calls of active or inactive are those of the source. Cut-off read from the data, not from the text of the source: active = GI50 up to about 1.1 µM and inactive = higher.

The experiment relates to NCI-H322M. As to the kind of experiment: inhibition of tumour cell growth, NCI panel, 48 h.
In the case of `Cc1cc(S(=O)(=O)Nc2nc(N)nc(N(C)C)n2)c(S)cc1Cl`, the GI50 was inactive: > 10 µM.

Take `COc1cc(Cl)c(CC(=O)c2c[nH]c3ccccc23)cc1OC`: the GI50 was inactive: > 100 µM.

As to `COc1cc(-c2[o+]c3cc(O)cc(O)c3cc2O)cc(O)c1O`, the GI50 was inactive: > 100 µM.

For `O=C1c2ccccc2C(=O)c2c1ccc(C(=O)O)c2-c1ccc2ccccc2c1`, the GI50 is inactive: 27.7 µM.

Regarding `CCN(CC)c1ccc(C(=C2C=CC(=[N+](CC)CC)C=C2)c2ccc(N(CC)CC)cc2)cc1`, the GI50 is active: 0.361 µM.

`Cc1c(C(=O)c2ccccc2)[n+]([O-])c2cc(Cl)c(Cl)cc2[n+]1[O-]`: the GI50 was inactive: 4.61 µM.

Consider `N#C/C(N)=C(C#N)/N=C/NCCO`, for which the GI50 was inactive: > 100 µM.

Regarding `COC1=CC2C(c3cc4ccccc4n3S(=O)(=O)c3ccccc3)CC1CN2C(=O)OCc1ccccc1` (centres undefined), the GI50 is inactive: 33.8 µM.

`CC(=O)O[C@H]1CCC2[C@@H]3CCC4C(=O)c5oncc5C[C@]4(C)C3CC[C@@]21C` (some centres undefined): the GI50 was inactive: > 100 µM.

For the compound `CC1=C(C)C(=O)OC(C(C)(O)C2(O)CCC3(O)C4CC(Cl)C5(O)C(O)C=CC(=O)C5(C)C4CCC32C)C1` (centres undefined), the GI50 was inactive: 46.8 µM.

`CC[C@@H]1CC[C@@H]2[C@H](CC[C@]3(C)[C@@H](OS(=O)(=O)c4ccc(C)cc4)CC[C@@H]23)[C@H]1CO`: the GI50 was inactive: > 100 µM.

For `O=C1c2ccccc2C(=O)c2oc(Br)cc21`, the GI50 is inactive: 1.59 µM.

`O=C1CCCC2=C1CC1=C(CCCC1=O)N2c1ccc(Cl)cc1`: the GI50 was inactive: > 100 µM.

Take `O=C(c1ccc(Cl)cc1)N(C(=S)OCc1ccccn1)c1ccccc1`: the GI50 is inactive: > 100 µM.

Regarding `O=C(CC(=O)Nc1ccccc1)NNC(c1cc(/N=N/c2ccc(Br)cc2)ccc1O)P(O)O` (centres undefined), the GI50 was inactive: 1.68 µM.

On to `CS(=O)(=O)CSCSSCS(C)(=O)=O`, for which the GI50 was inactive: 53.6 µM.

`CN(C)/C(N)=N\C#N`: the GI50 is inactive: > 100 µM.

As to `CNC(Cc1ccccc1)c1cccc(OC)c1O` (centres undefined), the GI50 was inactive: > 100 µM.

`CCOP(=O)(OCC)/C(F)=C/c1ccccc1`: the GI50 is inactive: > 100 µM.

On to `Nc1c2ccccc2nc2ccc(C(=O)Nc3ccc(S(N)(=O)=O)cc3)cc12`, for which the GI50 was inactive: > 100 µM.

In the case of `N#Cc1sc2nc3c(c(-c4ccccc4)c2c1N)CCCC3`, the GI50 is inactive: > 100 µM.

As for `COc1ccc(C2=C(Cl)c3cc(OC)c(OC)cc3C2=O)cc1OC`, the GI50 is inactive: > 100 µM.

In the case of `CC(=O)OCC1OC(NC(=S)CCSc2nc3ccccc3c(=O)n2-c2ccccc2)C(OC(C)=O)C(OC(C)=O)C1OC(C)=O` (centres undefined), the GI50 was inactive: > 100 µM.

Consider `O=c1[nH]nc(Nc2ccc(Cl)cc2)c2nnn(-c3ccc([N+](=O)[O-])cc3)c12`, for which the GI50 was inactive: 29.6 µM.

With `CC(=O)OC[C@H]1On2nnnc2[C@H](OC(C)=O)[C@@H](OC(C)=O)[C@@H]1OC(C)=O`, the GI50 is inactive: > 100 µM.

Take `Cc1c(C)c2c(c(N)c1C#N)C(=O)N(O)C2=O`: the GI50 is inactive: > 100 µM.

Take `CC(C)(C)OC(=O)NC(Cc1ccc(OC(C)(C)C)cc1)C(=O)N[C@H]1CC[C@H](C(=O)O)C1` (some centres undefined): the GI50 is inactive: > 100 µM.

In the case of `C#CCn1c(=O)c2ccccc2n(CC#C)c1=O`, the GI50 was inactive: > 10 µM.

For `CC1=C(C)CC2(CCCCC2=O)[S+]([O-])C1` (centres undefined), the GI50 was inactive: > 100 µM.

Turning to `c1cnc2c(c1)Nc1cnncc1S2`, the GI50 was inactive: > 100 µM.

As to `Cc1ccc(/C=N/Nc2cc(C)c3ccccc3n2)s1`, the GI50 was inactive: 7.11 µM.

On to `CCOP(=O)(Cc1nc(C#N)c(N)o1)OCC`, for which the GI50 was inactive: > 100 µM.

With `O=c1c(F)cn(Cc2c(Cl)cccc2Cl)c(=O)n1Cc1c(Cl)cccc1Cl`, the GI50 is inactive: > 31.6 µM.

On to `Cc1ccc(/N=N/C(=N/NC(=O)c2ccccc2)c2ccc(N(CCC#N)CCC#N)cc2C)cc1`, for which the GI50 is inactive: 47.6 µM.

Regarding `CSC1=C(SC)SC(=C2SC3=C(SC(=C4SCCS4)S3)S2)S1`, the GI50 was inactive: > 100 µM.

Regarding `CC1(c2cccc(N)c2)C2C(=O)NC(=O)C1C(=O)NC2=O` (centres undefined), the GI50 is inactive: 74 µM.

Take `O=C1CCC(=O)c2cc(Br)ccc2N1`: the GI50 was inactive: > 100 µM.

For `Cc1ccc(C2=Nc3ccccc3SC(c3cccc4c3OCO4)C2)cc1` (centres undefined), the GI50 is inactive: 18.7 µM.

Take `NC(=O)NC(=O)c1ccc(NC(=O)CBr)cc1`: the GI50 is inactive: 6.87 µM.

On to `CCCCCCc1cc2cc(-c3csc(-c4ccc(OC)cc4)n3)c(=O)oc2cc1O`, for which the GI50 is inactive: 16.4 µM.

Regarding `O=CN1CCN(C(=O)c2cc(Cl)cc(Cl)c2)C1=S`, the GI50 is inactive: 19.8 µM.

As for `O=c1[nH]c2ccc([N+](=O)[O-])c(Cl)c2c2ccccc12`, the GI50 was inactive: 7.98 µM.

With `CC1(C)OCC(CO)(Nc2nc(N3CC3)nc(N3CC3)n2)CO1`, the GI50 is inactive: 22.1 µM.

Take `Cn1c2ccccc2c(=O)c2cccc(C(=O)NC(CS)C(=O)O)c21` (centres undefined): the GI50 is inactive: > 100 µM.

In the case of `CC(C)C[C@H](NC(=O)CCc1ccccc1)B(O)O`, the GI50 was inactive: 81.5 µM.

On to `COc1cc(OCc2ccc3nc(-c4ccccc4)c(Cl)nc3c2)cc(OC)c1OC`, for which the GI50 was inactive: > 100 µM.

With `Cc1cc2nc3c(=O)[nH]c(=O)nc-3n(CC(O)C(O)C(O)CO)c2cc1N` (centres undefined), the GI50 was inactive: > 100 µM.

Regarding `O=C(O)Cc1cccc2c1OC(c1ccccc1)C(C(=O)c1ccccc1)C2=O` (centres undefined), the GI50 was inactive: 57.9 µM.

Turning to `COc1cc2oc(=O)ccc2cc1C(=O)CC(C)C`, the GI50 is inactive: > 100 µM.

As for `O=C(COc1ccccc1Cl)N1N=C(c2ccc(Cl)cc2)CC1(O)c1ccccc1` (centres undefined), the GI50 was inactive: > 100 µM.

As for `CCOC(=O)C(Cl)(NC(=O)c1c(F)c(F)c(F)c(F)c1F)C(F)(F)F` (centres undefined), the GI50 was inactive: > 100 µM.

For the compound `CC[C@@H]([C@H](O)c1ccccc1Cl)[N+](=O)[O-]`, the GI50 was inactive: > 100 µM.

On to `CCN1CCCC(C#N)(c2ccccc2)CC1` (centres undefined), for which the GI50 was inactive: > 100 µM.

For the compound `COC(=O)C1=CC2OC1(C)CCC2=O` (centres undefined), the GI50 is inactive: > 100 µM.

In the case of `O=C(O)c1ccc(Nc2nc3cc(C(F)(F)F)ccc3nc2C(=O)O)cc1`, the GI50 is inactive: > 100 µM.

On to `COC(=O)C1Cc2c([nH]c3ccccc23)[C@H](CC(C)C)N1` (some centres undefined), for which the GI50 is inactive: > 100 µM.

For `Cc1cccc(C)c1N1C(=O)C(=O)C(c2nc3ccccc3s2)/C(=N/c2cccc3c(=O)[nH][nH]c(=O)c23)C1=O` (centres undefined), the GI50 is inactive: > 100 µM.

In the case of `CC[C@@H](/C=C\CCC(=O)C[C@H](O)CCC=C(C)C)O[Si](C(C)C)(C(C)C)C(C)C`, the GI50 was inactive: > 100 µM.

In the case of `Fc1ccc(C2SCc3nc4ccccc4n32)cc1` (centres undefined), the GI50 was inactive: > 100 µM.

Turning to `COc1ccccc1NC(=O)C1=C(C)NC(C)=C(C(=O)Nc2ccccc2OC)C1c1ccc(C(C)C)cc1`, the GI50 is inactive: > 100 µM.

With `COc1cc2c(cc1[N+](=O)[O-])C(=O)C(Br)(Br)CCC2`, the GI50 is inactive: 15.7 µM.

`CC(C)[Si](OC1=C(C(=O)N(C)c2ccccc2Cl)CCCC1)(C(C)C)C(C)C`: the GI50 is inactive: 14.1 µM.

Consider `CN(O)C(=O)/C=C/c1ccc(OCc2cccc(Cl)c2)cc1`, for which the GI50 is inactive: 18.7 µM.

As to `CN(/N=C/c1ccc(OCc2cccc(COc3ccc(C=O)cc3)n2)cc1)c1cnn(-c2ccc(Cl)cc2Cl)c(=O)c1Cl`, the GI50 is inactive: > 100 µM.

Consider `Oc1cc(-c2ccccc2)cn2c1nc1ccccc12`, for which the GI50 is inactive: 3.27 µM.

Take `COc1cc2c(cc1OC)C1c3ccccc3CCCN1CC2` (centres undefined): the GI50 is inactive: > 100 µM.

`Nc1nc(N)nc(-c2ccccc2NS(=O)(=O)c2ccc([N+](=O)[O-])cc2)n1`: the GI50 is inactive: > 100 µM.

In the case of `CN1C=C(C(N)=O)Cc2ccsc21`, the GI50 is inactive: > 100 µM.

Regarding `COc1ccc2nc3cc([N+](=O)[O-])ccc3c(NNc3ccc(Cl)cc3)c2c1`, the GI50 was inactive: 46.9 µM.

As to `CCOC(=O)CCc1c(C)c2c(O)cc(O)cc2oc1=O`, the GI50 was inactive: > 100 µM.

Turning to `CC1=CC(=O)c2cccc(NC3=NCCO3)c21`, the GI50 was inactive: > 100 µM.

With `Cn1/c(=N\N=C(\CNCCO)[C@@H](O)[C@@H]2OC(c3ccccc3)OC[C@H]2O)sc2ccccc21` (some centres undefined), the GI50 was inactive: 18.9 µM.

As to `OC(C#CCN1CCCC1)(c1ccccc1)c1ccccc1Cl` (centres undefined), the GI50 is inactive: 36.5 µM.

As to `O=C1c2ccccc2C(=O)C2NC(CCCCCSSCCCCCC3=NC4C(=O)c5ccccc5C(=O)C4N3)=NC12` (centres undefined), the GI50 is inactive: > 100 µM.

On to `CCCCCCCCCCCCCCCCOc1ccc(/C=C/C2=[N+](CCCl)CCO2)cc1`, for which the GI50 is inactive: > 100 µM.

On to `Nc1cc2c3c(c1)Oc1cc(N)cc4c1C3c1c(cc(N)cc1O4)O2`, for which the GI50 was inactive: 25.8 µM.

`COC(=O)c1cc(Cl)ccc1NC(=O)c1ccc([N+](=O)[O-])cc1`: the GI50 was inactive: 23.2 µM.

Regarding `COC(=O)C1=C(O)C(O)=C(C(=O)OC)CC1`, the GI50 is inactive: > 100 µM.

For the compound `COC1=CC(=O)C2C(C1=O)C(c1ccc(OC)c(OC)c1)[C@H]2C` (some centres undefined), the GI50 is inactive: > 100 µM.

`CC(=O)O[C@H]1C[C@H]2[C@@H]([C@H](OC(C)=O)C[C@@H]3CC4(CC[C@@]32C)OOC2(CCCCC2)OO4)[C@@H]2CC[C@H]([C@H](C)CCC(N)=O)[C@@]12C`: the GI50 is inactive: 8.91 µM.

Regarding `CC(=O)O[C@@H]1C(C2CCCCC2)C=[N+]([O-])O[C@@H]1OC1CCCC1(c1ccccc1)c1ccccc1` (some centres undefined), the GI50 is inactive: 17.1 µM.

With `CCCCCC/C=C/CCCCCCCc1cccc(O)c1C(=O)O`, the GI50 is inactive: > 100 µM.

With `CCc1ccccc1NC(=O)c1cccc([N+](=O)[O-])c1O`, the GI50 was inactive: 24.5 µM.

With `c1ccc2c(c1)CCN1CCc3c([nH]c4ccccc34)C21` (centres undefined), the GI50 is inactive: 50.9 µM.

Values taken from ChEMBL document CHEMBL1201862, “PubChem BioAssay data set” (2004).
